Among the data in publication PMC12339391 are binding values, retold here.

Protein sequences, listed by entry. Tags and fused reporters are not part of them. Lines headed by an entry give the natural chain unless they say otherwise; changes in a name come on top. Chains listed by the source or under a name are the forms on record and can include a tag or linker. Residues count along the entry.
UniProt Q5I0X4: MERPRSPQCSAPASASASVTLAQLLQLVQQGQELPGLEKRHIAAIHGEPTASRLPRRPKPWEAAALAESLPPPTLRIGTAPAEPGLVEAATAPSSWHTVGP
HsPEX39(4A) (recombinant HsPEX39 with the KPWE motif changed to AAAA) (Q5I0X4, form named): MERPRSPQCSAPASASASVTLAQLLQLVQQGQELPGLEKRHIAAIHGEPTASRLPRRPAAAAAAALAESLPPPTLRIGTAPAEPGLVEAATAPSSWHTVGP
HsPEX39(ΔN,4A) (residues 48–101 with the KPWE motif changed to AAAA) (Q5I0X4, form named): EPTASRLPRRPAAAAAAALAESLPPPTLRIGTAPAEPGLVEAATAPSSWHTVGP
UniProt Q92968: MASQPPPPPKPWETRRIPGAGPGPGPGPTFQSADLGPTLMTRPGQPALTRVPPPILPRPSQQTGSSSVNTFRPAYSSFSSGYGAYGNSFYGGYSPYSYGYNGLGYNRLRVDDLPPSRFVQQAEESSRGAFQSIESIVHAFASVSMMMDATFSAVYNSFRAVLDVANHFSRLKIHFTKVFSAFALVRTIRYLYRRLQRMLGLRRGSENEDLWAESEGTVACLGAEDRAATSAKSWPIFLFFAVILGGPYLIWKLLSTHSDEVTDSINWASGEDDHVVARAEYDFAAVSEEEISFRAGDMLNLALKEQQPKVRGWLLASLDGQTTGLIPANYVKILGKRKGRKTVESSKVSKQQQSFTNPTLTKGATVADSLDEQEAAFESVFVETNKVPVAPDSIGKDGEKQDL
NtPEX13(4A) (NtPEX13 with a KPWE-to-AAAA substitution) (Q92968, form named): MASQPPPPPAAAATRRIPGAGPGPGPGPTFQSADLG

Changes are numbered by the printed parent chain. No constants are given. Whether binding was seen depends on the method and setting. For some of these results: In cells and extracts the contact can be indirect. Some results given as binding are weak or reduced against the parent protein; the word gives no strength. For some of these results: Tags and fused reporters may be left off the sequences shown.

The target in assay [1] is T1, [^35S]H6PEX7 (radiolabelled, N-terminally His-tagged human PEX7) (human) (UniProt O00628).
T1 sequence (chain, [35S]methionine): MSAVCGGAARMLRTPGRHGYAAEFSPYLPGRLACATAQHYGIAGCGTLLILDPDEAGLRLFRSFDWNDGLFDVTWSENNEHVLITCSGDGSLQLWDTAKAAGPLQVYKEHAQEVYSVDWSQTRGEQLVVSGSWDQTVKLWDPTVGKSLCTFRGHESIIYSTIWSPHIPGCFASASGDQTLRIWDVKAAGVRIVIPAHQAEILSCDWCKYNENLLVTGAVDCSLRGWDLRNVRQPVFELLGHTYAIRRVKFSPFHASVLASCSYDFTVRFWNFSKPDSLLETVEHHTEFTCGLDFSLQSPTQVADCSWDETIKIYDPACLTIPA
Nature of the assay: native gel or EMSA; [35S]His-PEX7 (0.4 μl reticulocyte lysate) pre-incubated with ONE recombinant protein (HsPEX39 variant 4 μg, His-PEX5(1–324) 1 μg, His-PHYH 100 ng or NtPEX13 variant 4 μg) in 20 μl 20 mM Tris-HCl pH 8.0, 5 mM DTT, 0.025% BSA; non-denaturing 8% gel, 4 °C; autoradiography; only the binder purified.

Assay [2] addresses T2, [^35S]H6PEX7(E77A) (human) (UniProt O00628).
T2 sequence (chain, [35S]methionine): T1 sequence (chain, [35S]methionine) with E77A
The description is as above.

Assay [3] deals with T1, [^35S]H6PEX7 (radiolabelled, N-terminally His-tagged human PEX7) (human). The assay is described as follows: native gel or EMSA; chase: preformed [35S]His-PEX7 complexes (5 μM NtPEX13 chased with 25 μM GST-HsPEX39; 50 nM GST-HsPEX39 chased with 5 μM GST-HsPEX39(48–101)); 20 min, aliquots at time points; control GST-Ub; autoradiography; only the binder purified.
For assay [4] the target is unchanged. Nature of the assay: native gel or EMSA; chase: preformed [35S]H6PEX7–H6PHYH–GST-HsPEX39 complex chased with a 100-fold molar excess of GST-HsPEX39(ΔN); aliquots at time points; control GST-Ub; autoradiography; only the binder purified.
For assay [5] the target is unchanged. Nature of the assay: native gel or EMSA; apparent K_d: [35S]H6PEX7 (reticulocyte lysate) with increasing amounts of recombinant HsPEX39 (no GST tag) or NtPEX13, no other protein added; native PAGE and autoradiography; only the binder purified. A general note: In EMSA bound probe runs differently from free probe, usually more slowly.
Assay [6] concerns the target T3, PEX7(E77A)-FLAG-HA (human) (UniProt O00628).
T3 sequence: T1 sequence (chain, [35S]methionine) with E77A
The assay is described as follows: co-IP; anti-FLAG M2 magnetic beads; lysates of HCT116 or HEK293T cells stably expressing the FLAG-HA-tagged bait; 50 mM Tris-HCl pH 7.5, 150 mM NaCl, 0.5% NP-40 alternative, 1 mM DTT, 4 h at 4 °C; washes with 400 mM NaCl; immunoblot of endogenous prey.

Assay [7] concerns the target HsPEX39-FLAG-HA (C-terminally FLAG-HA-tagged human PEX39) (human) (UniProt Q5I0X4). Described as above.
The target in assay [8] is T4, PEX7-FLAG-HA (C-terminally FLAG-HA-tagged human PEX7) (human) (UniProt O00628).
T4 sequence: T1 sequence (chain, [35S]methionine)
The description is as above.

In assay [9] the target is T1, [^35S]H6PEX7 (radiolabelled, N-terminally His-tagged human PEX7) (human). The assay is described as follows: native gel or EMSA; apparent K_d: [35S]H6PEX7 (reticulocyte lysate) with increasing amounts of recombinant HsPEX39 (no GST tag) in the presence of H6PHYH; native PAGE and autoradiography; only the binder purified.

As to “GST-HsPEX39 (N-terminally GST-tagged human PEX39, C6ORF226) (from UniProt Q5I0X4 1-101)”, the binding entry is listed as “binds” in assay [1], “no binding (tested: 4 μg in 20 μl)” in assay [2], “binds” in assay [3] and “binds” in assay [4].

As for “HsPEX39(4A) (recombinant HsPEX39 with the KPWE motif changed to AAAA) (from UniProt Q5I0X4 1-101)”, the binding entry in assay [1] is listed as “no binding (tested: 4 μg in 20 μl)”.

Turning to “HsPEX39(ΔN) (N-terminally truncated HsPEX39, residues 48–101) (from UniProt Q5I0X4 48-101) (domain or fragment)”, the binding entry in [1] is “binds”.

Consider “HsPEX39(ΔN,4A) (residues 48–101 with the KPWE motif changed to AAAA) (from UniProt Q5I0X4 48-101) (domain or fragment)”, for which, in [1], the binding result is on record as “no binding (tested: 4 μg in 20 μl)”.

On to “NtPEX13 (HsPEX13 residues 1–36 fused to Sumo1 with a hexa-histidine tag) (from UniProt Q92968 1-36) (domain or fragment)”, for which the binding entry in [1] was “binds”; in [2] it was “no binding (tested: 4 μg in 20 μl)”; in assay [3] it was “binds”; in [5] it was “binds”.

With “NtPEX13(4A) (NtPEX13 with a KPWE-to-AAAA substitution) (from UniProt Q92968 1-36) (domain or fragment)”, the binding entry in assay [1] is “no binding (tested: 4 μg in 20 μl)”.

Consider “endogenous HsPEX13 (from UniProt Q92968 1-403)”, for which the results for the binding result in assay [6], in assay [7] and in assay [8] were “no binding”, “no binding” and “binds”, respectively.

As to “endogenous HsPEX39 (C6ORF226) (from UniProt Q5I0X4 1-101)”, the binding result is “no binding” in [6] and “binds” in assay [8].

In the case of “recombinant HsPEX39 lacking the GST tag (from UniProt Q5I0X4 1-101)”, the binding result in [5] and in assay [9] was “binds” throughout.
